# Test results as given in the supplement of paper PMC5499739.
# In all, about 16,000 sequences were measured (“Z-score”: median about -0.37, highest 2% from about 3.2 on). The list shows a part of the results.
# Test system: RBM10 RRM1-ZnF (GST-tagged construct)
# Test: RNAcompete 7-mer binding Z-score; higher = stronger binding preference
# In short: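 In 1 ml Hepes pH 7.8 buffer with KCl, NaCl, glycerol, DTT, BSA and glutathione Sepharose beads, GST-tagged RBM10 constructs (20 pmol) were incubated for 30 min at 4°C with 1.5 nmol of a designed pool of 241 399 RNAs up to 41 nt. Four 2-min washes at 4°C followed, and bound RNA was detected by microarray hybridisation. Heptamer motif enrichment was expressed as a one-sided Z-score across probes containing each motif.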
row,Sequence,RNAcompete 7-mer binding Z-score
1,UUGUCCC,-0.604
2,GUGAUAA,0.449
3,GAGUAAC,0.16
4,GUCUUCA,-0.565
5,CCCGGCG,0.0853
6,GAUCUCA,-0.652
7,UCUUACG,-0.779
8,GAAGCCC,-0.62
9,GUAUUUG,-0.132
10,CGUUAAU,-0.487
11,AGCGAGC,2.93
12,GUCUUGG,0.186
13,CGUCCGG,-0.396
14,CGCGGCA,-0.184
15,GAUUUGG,1.55
16,UUUACCG,-0.808
17,AACCAUG,-0.415
18,UUACCGG,-0.36
19,GGGCCAA,0.511
20,UUAUGGG,1.89
21,CUAGCUG,-0.386
22,UGGGAUG,3.61
23,CCGGUCC,-0.568

row,Sequence,RNAcompete 7-mer binding Z-score
1,AACCUUA,-0.818
2,GCGGACU,0.313
3,AAGCUAC,-0.311
4,CAGUGUU,-0.506
5,GGUAUCA,0.699
6,AGAAAAA,0.0365
7,UACAGGG,2.22
8,AAUAGUG,0.131
9,CGAUCGU,-0.629
10,GGCUAAU,0.0788
11,CCCAUAA,-0.815
12,GAACGAC,-0.184
13,UGUGGGU,3.46
14,GGGCUGU,1.3
15,UCGUAGU,-0.493
16,CUUCGAG,-0.681
17,AAACCCG,-0.854
18,AGGAGGC,1.37
19,ACAUACA,-0.506
20,GUAUAGG,2.21
21,GAAUUGA,0.186
22,GCGCUUG,-0.334
23,CGGGCAC,0.842

row,Sequence,RNAcompete 7-mer binding Z-score
1,CCAUUGU,-0.655
2,CCAUCUC,-0.785
3,GAGGGGA,3.62
4,ACGUUUA,-0.655
5,AGAGUGG,2.81
6,CAUCCAC,-0.542
7,GCACUGU,-0.272
8,UUCGUAA,-0.802
9,GUAACAG,0.923
10,CCAUGGU,0.254
11,UAUCUAA,-0.61
12,UAACUGU,-0.522
13,UUUGGGC,0.923
14,UGCAUAU,-0.363
15,AUUAGCC,-0.772
16,CCCUCAA,-0.717
17,UUACCCU,-0.759
18,UAGCUGC,-0.604
19,CGUAUGG,0.745
20,AACCCUG,-0.587
21,GUGGCCU,-0.149
22,UCAUCGA,-0.584
23,AGACUAA,-0.435

row,Sequence,RNAcompete 7-mer binding Z-score
1,UCGGCAA,-0.311
2,CAAUUGA,-0.275
3,ACAGGAA,1.25
4,UCUGGGG,1.39
5,GCUUCCU,-0.659
6,AAGGGCA,2.78
7,GCAGCUA,-0.162
8,ACUGUCG,-0.522
9,AGGAAAU,1.28
10,GGUCCAA,-0.139
11,CAGGUAG,2.32
12,AGGGUGU,3.11
13,CACAUAG,-0.334
14,UAACUGG,0.355
15,CAGAUCA,-0.34
16,CAUGGGU,2.24
17,UCACACC,-0.698
18,CUGGUAU,-0.181
19,AGACCUU,-1.1
20,CCUCAUC,-0.737
21,ACAAAUU,-0.642
22,GAUCCGU,-0.73
